Measurements reported in PubChem BioAssay AID485344 (National Center for Advancing Translational Sciences (NCATS), 2010).
The whole screen tested about 340,000 compounds, of which about 6,900 (2%) were called active. No stated cut-off is given here; in the data, active means inhibition above about 30%; inactive means below that, where a call was filed. The list shows a part of the results, in another mix than the full data. Where no call is shown, the source filed none.

These molecules were tested against D(2) dopamine receptor (Homo sapiens) (UniProt P14416) (assay: HTS Assay for Allosteric Antagonists of the Human D2 Dopamine Receptor: Primary Screen for Antagonists). Conditions: HEK293 TREx D2 cells, calcium flux, dopamine EC80; at 10 µM; stronger effect = higher value.
In short: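 Tetracycline-induced HEK293 T-REx cells expressing D2 force-coupled to calcium signalling were dye-loaded, exposed to compound for 180 s, then challenged with an EC80 of dopamine; calcium flux was followed kinetically for a further 180 s.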
Further: 0% is about no effect.

Sequence of UniProt P14416 (P14416 whole entry, looked up): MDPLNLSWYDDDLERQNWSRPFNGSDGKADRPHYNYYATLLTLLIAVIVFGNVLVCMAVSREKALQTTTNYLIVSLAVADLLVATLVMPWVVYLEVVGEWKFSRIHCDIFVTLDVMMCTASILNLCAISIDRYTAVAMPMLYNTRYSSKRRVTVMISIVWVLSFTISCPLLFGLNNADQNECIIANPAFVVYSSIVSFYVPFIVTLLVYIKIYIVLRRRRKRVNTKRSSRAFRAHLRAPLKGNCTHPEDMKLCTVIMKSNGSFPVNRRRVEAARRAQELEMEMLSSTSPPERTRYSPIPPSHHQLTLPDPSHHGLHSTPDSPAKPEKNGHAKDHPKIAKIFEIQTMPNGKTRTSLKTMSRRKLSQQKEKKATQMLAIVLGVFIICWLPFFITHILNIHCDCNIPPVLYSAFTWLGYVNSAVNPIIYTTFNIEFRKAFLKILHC

With `COc1ccc(CNC(=O)Cn2c(=O)nc(-c3ccccc3F)c3cc(Cl)ccc32)cc1OC` as the molecule, how does the inhibition read?
Its inhibition is 17.1%.

`COc1ccc(/C=N/NC(=O)c2nn(-c3ccc(C)c(C)c3)c(=O)c3ccccc23)cc1` was tested. Which inhibition did it give?
Its inhibition is active: 44.7%.

With `Cc1ccc(Cl)cc1-n1ncc2c(NC3CCCCC3)ncnc21` as the molecule, how does the inhibition read?
The inhibition was -21.9%.

`N#Cc1cccc(Nc2ncnc3c2cnn3-c2cccc(Cl)c2)c1` was tested. Which inhibition did it give?
The inhibition was 1.15%.

Which inhibition does the source give for `CCOC(=O)C1CCCN(S(=O)(=O)c2ccc3c(c2)CCN3C(=O)CC)C1` (stereo unspecified) here?
Its inhibition is 10.8%.

With `O=C(CSc1nncn2c1cc1occc12)Nc1ccccc1C(F)(F)F` as the molecule, how does the inhibition read?
Its inhibition is -0.716%.

For `Cc1cccc2sc(N3CCN(C(=O)CS(=O)(=O)c4ccc(F)cc4)CC3)nc12`, which inhibition is on record?
The inhibition was 12%.

With `CCOC(=O)c1c(C)[nH]c(CCC(=O)Nc2c(Cl)cc(OC)cc2OC)c1C` as the molecule, how does the inhibition read?
Its inhibition is -9.48%.

`Cc1ccc(C(=O)O)cc1-n1c(C)ccc1-c1ccccc1` was tested. Which inhibition did it give?
Its inhibition is -2.56%.

For `COC(=O)c1cc(NC(=O)C2CCCN(S(=O)(=O)c3c(C)n[nH]c3C)C2)cc(C(=O)OC)c1` (stereo unspecified), which inhibition is on record?
The inhibition was -12.5%.

Which inhibition does the source give for `COc1ccc(C)cc1NC(=O)Cn1c(=O)nc(-c2ccccc2F)c2cc(Cl)ccc21` here?
Its inhibition is 20.6%.

With `CCN1CCN(C(=O)c2ccccc2N(C)S(=O)(=O)c2ccc(C)cc2)CC1` as the molecule, how does the inhibition read?
Its inhibition is active: 40.9%.

With `COCc1cc(C)nc2sc(C(=O)Nc3ccc(OC(F)(F)F)cc3)c(N)c12` as the molecule, how does the inhibition read?
Its inhibition is -4.52%.

With `O=C(Nc1ccnn1C1CCN(Cc2ccccc2OC(F)F)CC1)c1cccc(F)c1` as the molecule, how does the inhibition read?
The inhibition was active: 32.1%.

Which inhibition does the source give for `CN(C)c1ccc(C(=O)N2CCCC(N3CCN(Cc4ccc5c(c4)OCO5)CC3)C2)cc1` (stereo unspecified) here?
The inhibition was active: 31.6%.

For `Cc1ccc(C)c(OCCn2cc(C(=O)c3cccs3)c3ccccc32)c1`, which inhibition is on record?
The inhibition was 5.71%.

How did the inhibition turn out when `Cc1cccc(C(=O)N2CCc3cc(CNC(=O)c4ccc(Br)o4)ccc32)c1` was run?
The inhibition was 11.2%.

For `O=[N+]([O-])c1ccc(S(=O)(=O)NCc2nc3cccnc3n2Cc2ccccc2Cl)cc1`, which inhibition is on record?
The inhibition was 19.1%.

Which inhibition does the source give for `COc1ccc(OC)c(NC(=O)Cn2c(=O)n(CC3CCCO3)c(=O)c3cc(OC)c(OC)cc32)c1` (stereo unspecified) here?
The inhibition was 11.5%.

With `COc1ccc(NC(=O)CN(C)S(=O)(=O)c2ccc3c(c2)CCC(=O)N3)c(OC)c1` as the molecule, how does the inhibition read?
The inhibition was 20.8%.

With `CCOc1ccccc1CNC(=O)CN1C(=O)CSc2ccc(S(=O)(=O)N3CCOCC3)cc21` as the molecule, how does the inhibition read?
The inhibition was -22.1%.

Which inhibition does the source give for `CCN1CCC[C@H]1CNC(=O)c1c(O)c(Cl)cc(Cl)c1OC` here?
Its inhibition is active: 76%.

For `O=C(c1ccc2c(c1)CCN2S(=O)(=O)c1ccccc1)N1CCN(c2cccc(Cl)c2)CC1`, which inhibition is on record?
The inhibition was -11.4%.

With `CCOC(=O)CNc1nc2ccccc2n2c(C)nnc12` as the molecule, how does the inhibition read?
The inhibition was -16.3%.

How did the inhibition turn out when `CCc1ccc(NC(=O)CSc2nc3c(sc4ccccc43)c(=O)n2CCCOC)cc1` was run?
Its inhibition is 19.6%.

How did the inhibition turn out when `Cc1ccc(CNC(=O)c2cnc(N3CCCCC3)c3ccccc23)cc1` was run?
The inhibition was -2.58%.
